# In patent publication US8895004B2 (priority 2007, dated 2014):
# Tests used:
# [1] = target: T1, P/Q type voltage-gated presynaptic calcium channel (Rattus norvegicus, UniProt P54282); type: cell-based
# T1 construct: Typical P/Q channel-mediated currents could be reliably elicited in somatic whole-cell recordings under our culture conditions; endogenous in cells; host or cells: cultured hippocampal neurons
# [2] = system: P/Q type voltage-gated presynaptic calcium channel; type: binding; settings: rat brain membrane fractions
substance,measurement,setting,value
"Aβ(1-42) globulomer: soluble, globular, non-covalent association of Aβ(1-42) peptides, apparent molecular weight 38/48 kDa, obtained as in Example 6b of WO2004/067561",activity of the P/Q type voltage-gated presynaptic calcium channel,[1],directly inhibits the activity
same,washout after binding to the P/Q channel,[1],cannot be readily washed out
same,physical binding to the P/Q type channel,[2],capable of physically binding
